Source: PubChem BioAssay AID1508623 (National Center for Advancing Translational Sciences (NCATS), 2021)
The whole screen tested about 48,000 compounds, of which about 450 (0.94%) were called active. About 19% were inconclusive and are not listed. Calls come from the whole dose curve; as a rule, active = well fitted inhibition curve with a large enough effect; inconclusive = small, poorly fitted or top-dose-only effect; inactive = no such curve, though single readings can be large or run the other way. The list shows a part of the results.

Assay: Primary qHTS for Identification of Small Molecule Inhibitors of Huntingtin Promoter Activity; note: nearly all actives have a fitted effect of over 50% in size
Conditions: HEK293 HTT promoter firefly luciferase reporter (activity 0% = vehicle and -100% = no light), 24 h; series mostly up to 57.5 µM; activity change, negative = inhibition: at the top concentration
How it was run: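 Firefly luciferase readout (Dual-Glo, 10 min RT) after 24 h, 37 °C compound exposure (final up to 57.5 uM) of HEK293 reporter cells cultured 24 h beforehand; PTC124 at 50 uM final as control inhibitor; activity scaled vehicle 0%, zero RLU -100%.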

Activity change, negative = inhibition, inactive:
COc1ccc(OC)c(NC(=O)c2oc3c(c2C)-c2nn(Cc4ccc(Cl)cc4)cc2CC3)c1 -0.725%
Cc1ccc2c(CC(=O)N3CCN(c4cccc(Cl)c4)CC3)coc2c1C -12.7%
CC(=O)Nc1ccc(NC(=O)Cn2cc3c(n2)CCCCC3)cc1 0.772%
Cc1cccc(OCCSc2nc3ccc(NC(=O)COc4ccccc4C)cc3s2)c1 -8.12%
CC(C)C(=O)Nc1cccc(C(=O)Nc2nnc(C(F)(F)F)s2)c1 5.37%
Cc1ccc(NC(=O)CN(c2ccc(C)cc2)S(=O)(=O)c2cccc3nonc23)cc1 -12.2%
CCOCCCn1c(=N)c(C(=O)NCc2ccccc2)cc2c(=O)n3ccccc3nc21 6.01%
COc1cccc(NC(=O)Cn2c(=O)n(CCc3cccc(C)c3)c(=O)c3ccccc32)c1 -3.78%
Cc1cccc(NC(=O)c2c(NC(=O)c3ccco3)sc3c2CCC(C)C3)c1 (configuration not stated) 9.69%
COc1cccc(CNC(=O)c2ccc3c(c2)nc2n3CCC(C)C2)c1 (configuration not stated) 44.7%
COc1ccc(-n2nc(-c3ccc(C)cc3)c3cnc4cc(F)c(F)cc4c32)cc1 -13.8%
Cc1ccc(NC(=O)Cn2nc(-c3ccccc3)nc(Cc3ccccc3)c2=O)cc1 -6.92%
CCCN(CCC)C(=O)c1nn(C)c2c1CSc1ccccc1-2 -11.8%
Cc1ccccc1C(=O)Nc1ccccc1-c1nc(-c2ccccc2)no1 18.1%
Cc1nc(-c2cccc(F)c2)sc1CCNC(=O)C(=O)Nc1ccc2c(c1)OCCO2 -39.1%
CCc1nc2nc(C)c(NS(=O)(=O)c3ccc(F)c(C)c3)c(=O)n2[nH]1 -17.7%
CCOc1ccc2nc(N3CCCC(C(=O)NCCc4ccc(C)cc4)C3)sc2c1 (configuration not stated) 68.1%
CC(C(=O)Nc1ccccc1)n1nnc2sc3c(c2c1=O)CCCC3 (configuration not stated) -16.7%
Cc1cccc(Cn2c(=O)n(Cc3ccccc3)c(=O)c3sc4ccccc4c32)c1 -12.8%
CCCCn1c(CNC(=O)C23CC4CC(CC(C4)C2)C3)nnc1SCC(=O)Nc1ccc(F)cc1 -31.4%
Cc1cccc(NC(=O)Nc2nnc(N3CCCC3)s2)c1 14.2%
Cc1cc(C(=O)NCc2ccccc2)c2c(C)nn(-c3cccc(Cl)c3C)c2n1 -9.02%
Cc1ccc(NC(=O)C2CCCN2S(=O)(=O)c2ccc3nc(-c4ccccc4)[nH]c3c2)cc1C (configuration not stated) -20.9%
O=C(NCCS(=O)(=O)N1CCN(c2ccccc2F)CC1)C1CC(=O)N(c2ccc(F)cc2)C1 (configuration not stated) -28.5%
CCc1ccccc1N(CC)C(=O)Cn1nc(Cc2ccncc2)c2ccccc2c1=O -27.7%
Cc1ccc(OCC(=O)Nc2cccc3ccc(C)nc23)c(C)c1 -0.976%
Cc1cccc(NC(=O)COc2ccc3oc4c(c3c2)CCCC4)c1 -9.33%
COc1ccc(CNC(=O)C(=O)NCC(c2cccs2)S(=O)(=O)c2cccs2)cc1 (configuration not stated) -32.6%
O=C(CCc1nc(-c2cccs2)no1)Nc1ccc([N+](=O)[O-])cc1 -22%
O=C(NCc1ccccc1Cl)c1ccc(-n2cnc3cccnc32)cc1 -7.28%
Cn1c(/C(C#N)=C/c2ccc(C(F)(F)F)cc2)nc2ccccc21 47.3%
CCOc1ccccc1NC(=O)Cn1nc(N2CCN(c3ccccc3)CC2)ccc1=O -19.3%
Cc1ccc(CNC(=O)CSCc2nc(-c3cccc(C)c3)oc2C)cc1 -25.2%
Cc1cn2c(=O)c(S(=O)(=O)NCc3ccc(F)cc3)c(C)nc2s1 -1.58%
CCC(NC(=O)Nc1cccc(C)c1)c1c(-n2cccc2)sc2c1CCN(C)C2 (configuration not stated) -21.3%
O=C(CCC1N=C2c3ccccc3N=C(SCC(=O)NCCc3ccccc3)N2C1=O)NCc1ccc(F)cc1 (configuration not stated) -20.2%
CCCN(CCC)C(=O)Cn1c(=O)n(-c2ccc(Cl)c(Cl)c2)c(=O)c2c(C)c(C(=O)N(C)C)sc21 -5.38%
CCOc1ccc(OCC)c(NC(=O)C2CCCN(S(=O)(=O)c3ccc(C)cc3)C2)c1 (configuration not stated) -14.3%
CCOc1ccc(-c2nnc(SCC(=O)N(CC)c3cccc(C)c3)o2)cc1 -15%
O=C(Cn1c(=O)n(-c2ccccc2Cl)c(=O)c2sc3ccccc3c21)NC1CCCC1 -18.4%
Cc1ccn2c(Nc3ccc4c(c3)OCCO4)c(-c3ccc(N(C)C)cc3)nc2c1 57.9%
O=C(O)CCC(=O)c1ccc(-c2ccccc2)cc1 4.9%
COc1ccccc1CNC(=O)CSc1cc(C)[nH]c(=O)n1 -4.69%
COc1ccc(-c2c(C)nn3c(N4CCN(c5cc(Cl)ccc5C)CC4)cc(C)nc23)cc1OC -1.16%
COCCCNC(=O)C1CCN(c2nc3ccc(Cl)cc3[nH]2)CC1 13.6%
CC1=C(c2ccc(C(C)C)cc2)S(=O)(=O)NC1=NCc1ccc(Cl)cc1 -24.6%
CCOC(=O)c1ccccc1NC(=O)c1nn(-c2ccc(OC)c(Cl)c2)c(=O)c2c1c1ccccc1n2C -1.54%
Cc1ccc(CNC(=O)CCCc2nnc3n(CC(C)C)c(=O)c4sccc4n23)cc1 -4.3%
CCc1ccc2occ(CC(=O)Nc3ccc(C)c(C)c3)c2c1 -20.2%
Cc1sc2ncn(CC(=O)N3CCN(c4ccccc4)CC3)c(=O)c2c1S(=O)(=O)N1CCC(C)CC1 -32%
O=c1c2nncn2ccn1-c1ccc(F)c(F)c1 -7.29%
O=C(c1cc2cc3ccc(Cl)cc3nc2o1)N1CCN(c2cccc(Cl)c2)CC1 5.11%
O=C(CN1C(=O)CSc2ccc(S(=O)(=O)N3CCCC3)cc21)NCc1ccc(F)cc1Cl -9.18%
Cc1cccc(NC(=O)N2CC=C(c3c[nH]c4ccccc34)CC2)c1C -23.9%
CCc1cccc(C)c1NC(=O)Cn1ncc2c3ccccc3n(Cc3ccccc3)c2c1=O 11%
COc1ccc(-c2cn3nc(SCC(=O)Nc4cc(C)cc(C)c4)ccc3n2)cc1 35.8%
Cc1ccc(Cl)cc1Nc1nn2c(=O)c3ccc(C(=O)NC4CCCCC4)cc3nc2s1 -4.21%
CCCSc1ncnc2c1c(-c1ccccc1)cn2-c1ccccc1OC -12.3%
COc1ccc(OC)c(NC(=O)CS(=O)(=O)Cc2nc(-c3ccc(C)cc3)oc2C)c1 -17.9%
CN1CCN2c3ccccc3Cc3ccccc3C2C1 (configuration not stated)
CCOc1ccc2c(c1)c(=O)c(S(=O)(=O)c1ccc(CC)cc1)cn2Cc1cccc(Cl)c1 -12.9%
CCCCOC(=O)c1ccc(Nc2nc3ccc(C(=O)c4ccccc4)cc3n3cnnc23)cc1 0.151%
